In publication PMC4336329 (PLoS ONE, 2015):
The campaign covered roughly 310,000 compounds. About 14,000 (4.5%) showed an effect of 50% or more. The effect is printed as a negative number. The list shows a part of the results.

Molecular target: human ether-à-go-go-related gene (hERG) potassium channel (human, UniProt Q12809)
Experiment: primary screen, population patch clamp on CHO cells stably expressing hERG
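Note: peak tail current of the secondary pulse compared with the same well before compound.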

Sequence of human ether-à-go-go-related gene (hERG) potassium channel (Q12809 whole entry, looked up): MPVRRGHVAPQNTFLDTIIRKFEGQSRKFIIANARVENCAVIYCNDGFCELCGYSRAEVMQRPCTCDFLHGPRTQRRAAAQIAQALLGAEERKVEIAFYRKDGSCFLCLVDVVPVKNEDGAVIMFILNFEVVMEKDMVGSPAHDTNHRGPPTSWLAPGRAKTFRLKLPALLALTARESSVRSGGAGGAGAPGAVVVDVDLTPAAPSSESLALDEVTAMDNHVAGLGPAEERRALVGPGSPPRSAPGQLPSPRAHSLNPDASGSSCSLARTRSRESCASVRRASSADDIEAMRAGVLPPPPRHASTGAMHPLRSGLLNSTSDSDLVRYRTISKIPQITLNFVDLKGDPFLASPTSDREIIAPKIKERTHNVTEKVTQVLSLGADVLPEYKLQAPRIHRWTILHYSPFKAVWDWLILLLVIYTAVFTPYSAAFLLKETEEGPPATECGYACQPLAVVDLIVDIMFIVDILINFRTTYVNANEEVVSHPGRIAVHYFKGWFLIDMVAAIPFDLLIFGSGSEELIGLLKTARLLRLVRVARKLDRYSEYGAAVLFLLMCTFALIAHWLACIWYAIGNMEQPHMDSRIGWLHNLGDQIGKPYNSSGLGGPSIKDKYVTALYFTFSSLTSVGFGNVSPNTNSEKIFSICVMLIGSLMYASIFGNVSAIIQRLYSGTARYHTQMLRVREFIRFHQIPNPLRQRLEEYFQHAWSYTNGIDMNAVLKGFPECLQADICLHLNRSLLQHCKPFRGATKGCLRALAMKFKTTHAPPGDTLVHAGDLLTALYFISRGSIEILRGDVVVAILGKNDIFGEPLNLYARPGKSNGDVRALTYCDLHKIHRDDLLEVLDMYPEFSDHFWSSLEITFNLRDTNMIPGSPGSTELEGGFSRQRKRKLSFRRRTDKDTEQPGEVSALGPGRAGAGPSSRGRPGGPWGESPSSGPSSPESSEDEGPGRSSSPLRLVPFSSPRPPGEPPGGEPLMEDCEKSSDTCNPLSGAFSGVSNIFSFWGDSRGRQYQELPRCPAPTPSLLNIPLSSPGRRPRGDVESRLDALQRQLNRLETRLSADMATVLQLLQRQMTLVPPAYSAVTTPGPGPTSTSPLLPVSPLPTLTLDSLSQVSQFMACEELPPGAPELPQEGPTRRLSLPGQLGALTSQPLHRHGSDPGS

Row | SMILES | hERG current change (%, negative = inhibition) at 10uM [%]
1 | CCCCCn1c(=O)[nH]c2cc(C(=O)NCCN3C(C)CCCC3C)ccc2c1=O (stereo not shown) | -27.4
2 | CCN(CC)S(=O)(=O)c1cc(C(=O)Nc2ccncc2)ccc1Cl | -66.3
3 | Cc1nc2cc(NC(=O)N3CCN(c4ccccn4)CC3)ccc2o1 | 5.32
4 | Cc1nn(C(=O)c2cccs2)c(C)c1CN1C(=O)c2ccccc2C1=O | -0.617
5 | COc1cccc(-c2csc(N3CCN(C(=S)Nc4ccccc4OC)CC3)n2)c1 | 2.75
6 | CC1(C)CC(=O)/C(=C(/O)CCCN2C(=O)c3ccccc3C2=O)C(=NC(C)(C)C)C1 | -14.6
7 | COCCn1c(-c2ccc(OC)cc2)cnc1N | -18.8
8 | Cc1nn(C(=O)c2cccc([N+](=O)[O-])c2)c(C)c1Cl | 17
9 | CCC(C)c1ccc(NC(=S)N2CCN(c3ccccn3)CC2)cc1 (stereo not shown) | -9.76
10 | Cc1ccc(Cl)cc1NC(=O)c1cc(NC(=O)C2CCCCC2C(=O)O)ccc1N1CCOCC1 (stereo not shown) | -6.57
11 | O=c1[nH]c(=O)n(Cc2ccco2)c(O)c1C=NCc1ccc2c(c1)OCO2 | -22.3
12 | Cc1cc(C)c(NC(=O)CN2C(=O)NC3(CCOc4ccccc43)C2=O)c(C)c1 (stereo not shown) | -3.16
13 | O=C1OC(CC(=O)N(Cc2nnc(-c3ccc(Cl)cc3)o2)C2CC2)c2ccccc21 (stereo not shown) | -67.8
14 | Cc1cccc(C#N)c1NC1=CC(=O)CC(C)(C)C1.Cl | -7.4
15 | O=C(Cn1c(C(F)(F)F)nc2ccccc21)N=Nc1c(O)[nH]c2ccc(Br)cc12 | 15.9
16 | CCOC(=O)c1sc2ccccc2c1OC(=O)c1ccccc1 | -0.968
17 | O=c1oc2ccccc2c2c1C(c1ccc(Cl)cc1)Nc1ccc3ccccc3c1-2 (stereo not shown) | 15.1
18 | COC(=O)c1ccc(N2C(=O)CC(N3CCC(n4c(=O)[nH]c5ccccc54)CC3)C2=O)cc1 (stereo not shown) | -0.853
19 | O=C(Nc1ccc(F)cc1F)c1cncc(Br)c1 | -3.88
20 | COc1ccc(NC(=O)O/N=C/c2ccccc2Cl)cc1 | -16.3
21 | CCCCC1=CC2=CC(=O)C(C)(OC(=O)CC)C(=O)C2=CN1CCc1ccccn1 (stereo not shown) | -4.43
22 | CC(C)c1ccc(NC(=O)CCCN2C(=O)NC(C)(C)C2=O)cc1 | 10.3

Row | SMILES | hERG current change (%, negative = inhibition) at 10uM [%]
23 | CC(=O)c1ccc(NC(=O)CCc2nnc3ccc(N4CCC5(CC4)OCCO5)nn23)cc1 | 2.33
24 | CCC(C)(C)NC(=O)C(OC(=O)c1ccco1)c1ccccc1F (stereo not shown) | 13.4
25 | Cc1ccc(N=c2c([N+](=O)[O-])nn(-c3ccc4c(c3)OCCO4)n2O)c(Cl)c1 | 2.69
26 | CCCNC(=O)OCC12CC3CC(CC(C3)C1)C2 | -13
27 | COc1ccc(N2CCN(C(=S)Nc3ccc(C)cc3C)CC2)cc1 | 28.7
28 | COc1ccc(NC(=O)c2ccc(-c3ccccc3)cc2)cc1S(=O)(=O)N1CCOCC1 | 25.5
29 | COc1cccc(OCCCCSc2ncccn2)c1 | -15.1
30 | O=C(CCS(=O)(=O)c1ccc(Cl)cc1)Oc1ccc2c(c1)OCO2 | 2.43
31 | COc1ccc(-c2cc(C(=O)Nc3ccc(C)c(C)c3)no2)cc1 | 20.2
32 | N/C(=N\OC(=O)c1ccc(Br)cc1)c1cccc([N+](=O)[O-])c1 | 23
33 | Cc1ccc(OCc2ccccc2C)c([N+](=O)[O-])n1 | -6.31
34 | CCN(C(=O)COc1ccc(F)cc1Br)c1c(N)n(Cc2ccccc2)c(=O)[nH]c1=O | 2.08
35 | COc1ccc(C2CC3(O)CC(C#N)(C(=O)N3)C2(C#N)C#N)cc1 (stereo not shown) | 15.9
36 | Cc1ccc(NC(=O)CSc2nc(O)cc(=O)n2-c2ccc(C)cc2)cc1 | 15.4
37 | CC(C(=O)Nc1ccc(S(=O)(=O)N2CCCC2)cc1)N(C)Cc1ccc(F)cc1 (stereo not shown) | -9.91
38 | CCCc1ccc2oc(C(=O)N(C)Cc3ccn[nH]3)c(C)c2c1 | -12
39 | CCOc1ccccc1N1CCN(C(=O)c2ccc3[nH]c(C)c(C)c3c2)CC1 | 7.49
40 | CCOc1ccc(NC(=O)CN(C)c2nnnn2-c2ccccc2)cc1OCC | 0.42
41 | CCc1cc(C(=O)Nc2nc(-c3ccccn3)cs2)sc1C | 10.7
42 | COCCn1c(SCC(=O)NC(C)c2ccc(F)cc2)nc2ccccc21 (stereo not shown) | 3.36
43 | O=c1c2ccccc2nc2c3ccccc3c(NCc3cccnc3)nn12 | -25.5
44 | CC1(C)CC2CC(C)(CN2S(=O)(=O)c2ccc(C(=O)Nc3ccc(S(=O)(=O)N4CCOCC4)cc3)cc2)C1 (stereo not shown) | 16.5

Row | SMILES | hERG current change (%, negative = inhibition) at 10uM [%]
45 | CC1CCN(C(C)C(=O)Nc2cc(S(=O)(=O)N3CCCCC3)ccc2Cl)CC1 (stereo not shown) | -18.3
46 | CCN(CC)S(=O)(=O)c1ccc(N2CCOCC2)c(NC(=O)C(C)(C)C)c1 | -0.765
47 | O=C(O)Cn1cc2c(n1)CCCCC2 | 6.77
48 | CCOC(=O)c1cnc(-n2nc(C)cc2C)nc1Oc1ccccc1F | -6.58
49 | CCCn1nnc(NC(=S)NC(=O)C(C)(C)C)n1 | -5.64
50 | COc1ccc(C(=O)N/N=C/c2cn[nH]c2-c2ccc(OC)cc2OC)cc1 | 38.8
51 | CCOc1ccc(C2C(C(=O)O)CCC(=O)N2C2CCCCC2)cc1 (stereo not shown) | 10.6
52 | Cc1ccc(OC(=O)COc2ccccc2)c(-n2nc3ccccc3n2)c1 | 9.8
53 | CC(OC(=O)c1ccc2c(=O)n3c(nc2c1)CCC3)C(N)=O (stereo not shown) | 20.6
54 | Cc1c(C(=O)OCC(=O)NC(C)c2ccccc2)oc2ccccc12 (stereo not shown) | 23.3
55 | Clc1cccc(N2CCN(c3ncnc4nc[nH]c34)CC2)c1 | -2.38
56 | CC(C)N(Cc1cn[nH]c1-c1ccc(-c2ccccc2)cc1)Cc1nccn1C | -71.9
57 | O=S(=O)(Cc1cccc(F)c1)c1c[nH]c2ccccc12 | 8.65
58 | Cc1ccc(SCC(=O)OCC(=O)NC2CCCCCC2)cc1 | 24.6
59 | Cc1cc2c(OCC(O)CN3CCCC3)cccc2[nH]1 (stereo not shown) | 18.7
60 | CCN(c1ccccc1)S(=O)(=O)c1cc2c(cc1C)N(C)CCO2 | -13
61 | O=C(c1ccc2c(c1)OCO2)N1CCCC1 | 12.6
62 | Cc1ccc(C(=O)Nc2cccc(-c3cnc4ccccc4n3)c2)cc1 | 7.83
63 | COc1ccccc1NC(=O)N1CCN(C(=O)Nc2ccccc2OC)CC1 | 0.184
64 | C#CCOCCOCCOCCNc1nc(N2CCN(C(=O)Cn3cc(CCCC[NH3+])nn3)CC2)nc(N2CCN(C(=O)[C@H](CCCC[NH3+])n3cc(CCC(=O)O)nn3)CC2)n1.[Cl-] | 6.98
65 | O=C(COC(=O)c1ccccc1NCCO)NCc1cccs1 | 0.449
66 | COC(=O)[C@H]1C[C@@H]1[C@H](NC(=O)c1cc(C)on1)c1ccccc1 | 10.3

Row | SMILES | hERG current change (%, negative = inhibition) at 10uM [%]
67 | CC1CCCCC1NC(=O)c1ccc(-n2cncn2)c([N+](=O)[O-])c1 (stereo not shown) | -13.5
68 | COc1ccc(C2CC(c3ccccc3Cl)Nc3ncnn32)cc1OC (stereo not shown) | -23.3
69 | COC(=O)c1cn(C(C)C(=O)NCc2ccco2)c2ccccc12 (stereo not shown) | 9.97
70 | Cc1ccc(CN2CCN(Cc3cn[nH]c3-c3cccc(F)c3)CC2CCO)o1 (stereo not shown) | -25.8
71 | Cc1cc(=O)c(C(=O)c2ccccc2)c(C)o1 | 21.2
72 | S=c1[nH]nc(Cc2cccc3ccccc23)o1 | 18.7
73 | Nc1nc2c(Cl)cc(Cl)cc2s1 | 19.1
74 | Cc1cc(C)c2c(=O)n(CC(=O)NC3CCCC3)sc2n1 | 4.76
75 | CC1(c2nnc(-c3cccc(Cl)c3)o2)CC(c2cccc(F)c2)=NO1 (stereo not shown) | -1.02
76 | O=C(NC(=S)Nc1cccnc1)c1ccccc1 | 13
77 | Cc1nc2ccccn2c1C(=O)NNC(=O)Nc1cccc(C(F)(F)F)c1 | -11
78 | CN(C)S(=O)(=O)c1cccc(C(=O)c2nccn2C)c1 | 3.94
79 | Cc1ccc(NC(=O)CN2CCCCC2)c2c1CC(C)(C)O2 | 1.17
80 | CCOC(=O)c1oc2ccccc2c1NC(=O)c1cc(OC)cc(OC)c1 | 7.29
81 | O=C(CS(=O)c1cccc(C(F)(F)F)c1)Nc1ccc(Cl)cc1Cl (stereo not shown) | 8.83
82 | N#Cc1c(N2CCOCC2)nc(N)c2c(N)nc3c(c12)CC(CCl)O3 (stereo not shown) | 3.55
83 | O=C(O)c1cc2ccccc2c2cc(Br)ccc12 | 15.5
84 | O=C(Cn1nnc(N2CCCC2)n1)N/N=C/c1ccc(Cl)cc1 | 13.1
85 | O=c1sc2ccccc2c(N2CCCC2)c1[N+](=O)[O-] | 6.33
86 | O=C(NCCn1ccc2ccccc21)C1CCCCC1 | -1.81
87 | COc1ccccc1N1CCN(C(=O)Cc2c(C(=O)O)[nH]c3ccc(Cl)cc23)CC1 | 18.7
88 | CCOC(=O)c1ccc(NC(=O)CSc2nnc(CNC(=O)c3c(F)cccc3Cl)o2)cc1 | -6.94
